Test results: patent publication US20260258099A1

Substrate: B cell receptor of hybridoma 5H10 (against DSG-3) (murine)
Test: cell-based or functional assay

B1: CRD-924-tesirine (Fc fusion)
chain: ELRIETKGQYDEEEMTMQQAKRRQKREWVKFAKPVREGEDNSKRNPIAKITSDYQATQKITYRISGVGIDQPPFGIFVVDKNTGDINITAIVDREETPSFLITVRALNAQGLDVEKPLILTVKILDINDNPPVFSQQIFMGEIEENSASNSLVMILNATDADEPNHLNSKIAFKIVSQEPAGTPMFLLSRNTGEVRTLTNSLDREQASSYRLVVSGADKDGEGLSTQAEVNIKVKDVNDNFPMFRGGGGSGGGGSGGGGS[human IgG1 Fc with changes and a few adjoining residues omitted here]
modifications: Tesirine conjugated by Fc-native cysteine conjugation
- percent increase in cell killing produced by the tesirine conjugate over the unconjugated CRD-924: > 90%
